Source: the supplement of paper PMC10126150
Values marked as one replicate rest on one cluster of the flow cell; about a third of the high ones do not repeat.

Tested on: ATP
Experiment: switch fluorescence ratio, 500 uM ATP over buffer (Cy3 cluster intensity, sum of 5 cycles each) (fold (ratio)); higher = stronger signal-on switching upon ATP binding; sequences stand for … in TCGTCGGCAGCGTCAGATGTGTATAAGAGACAGTTTTTTTTTTTTTTTTTTTTTTTTT…TC
Conditions: aptamer strand: ATP DNA aptamer (quencher-CACCTGGGGGAGTATTGCGGAGGAAGG + anchor), 100 nM annealed; ATP concentration: 500 uM; one replicate
Outline: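 Cy3-labelled switching-strand clusters on a modified Illumina MiSeq flow-cell were annealed to 100 nM quencher-labelled ATP aptamer, imaged in selection buffer, then imaged after 15 min with 500 uM ATP at 22 °C. Five buffer/ATP cycles ran, with NaOH stripping and re-annealing between them. The fluorescence ratio is summed target-cycle over summed buffer-cycle Cy3 intensity per cluster, averaged per switch-domain sequence. Clusters outside 100-1000 RFU were excluded.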
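Further: ATP exposure 15 min at 22 °C before imaging.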

CCAGCGATGG gave a switch fluorescence ratio of 1.16.

Work on GACCGGTGCT yielded a switch fluorescence ratio of 1.01.

In the case of TTTATTTCG, the switch fluorescence ratio is reported as 1.01.

GTGCGATGCA showed a switch fluorescence ratio of 1.05.

In the case of TGAGTAAGCG, the switch fluorescence ratio is reported as 0.924.

With GCCCGTGGTC the switch fluorescence ratio was 1.04.

TAGTTTGTAG showed a switch fluorescence ratio of 1.02.

CTTGGTGATT gave a switch fluorescence ratio of 0.937.

CCACGTAAAT was tested, and the switch fluorescence ratio was 1.31.

With CCTCTATAGT the switch fluorescence ratio was 1.24.

With AGGTAGTCCT the switch fluorescence ratio was 0.956.

For CGTACGACCG, the switch fluorescence ratio was 0.956.

For ACCACACAAT, the switch fluorescence ratio was 1.19.

CCCCTTTATG gave a switch fluorescence ratio of 1.01.

TGCTTGTAGA was tested, and the switch fluorescence ratio was 1.01.

GGAAAGCCCG gave a switch fluorescence ratio of 0.922.

TTCGCAAAAT showed a switch fluorescence ratio of 1.66.

In the case of CCAGGTCCTC, the switch fluorescence ratio is reported as 1.06.

AACCTATCTA showed a switch fluorescence ratio of 1.05.

TGGCAACGGT showed a switch fluorescence ratio of 1.03.

Work on CTGGAGGCAT yielded a switch fluorescence ratio of 1.51.

AGAACCCCGG showed a switch fluorescence ratio of 1.

GGTGAGTGTT showed a switch fluorescence ratio of 0.938.

GGGCCCGGCC showed a switch fluorescence ratio of 0.979.

In the case of GCTAGAGGCA, the switch fluorescence ratio is reported as 1.

For ACTTGTATAC, the switch fluorescence ratio was 1.12.

CGGTTTTCTC showed a switch fluorescence ratio of 0.99.

TTATCTCCGC gave a switch fluorescence ratio of 3.16.

TCGAGCCAAT was tested, and the switch fluorescence ratio was 1.72.

In the case of CGGCACTTTT, the switch fluorescence ratio is reported as 1.01.

GCTAGTAATG showed a switch fluorescence ratio of 1.01.

GGGTGCAATA gave a switch fluorescence ratio of 1.25.

GAGACCCATA showed a switch fluorescence ratio of 1.55.

With CCTTAGCATG the switch fluorescence ratio was 2.03.

AGCTAGGGTA gave a switch fluorescence ratio of 0.994.

In the case of GTGAGTTTCT, the switch fluorescence ratio is reported as 0.997.

CCATTGGAGC gave a switch fluorescence ratio of 1.01.

AAGACTGTAG was tested, and the switch fluorescence ratio was 0.997.

For CCAAGGCTAG, the switch fluorescence ratio was 1.04.

With GTTCGCGGCC the switch fluorescence ratio was 1.11.

Work on GGGATAAGTG yielded a switch fluorescence ratio of 0.978.

Sequence ACCGTCGTCG has a switch fluorescence ratio of 1.01.

Work on ATTAGCGCAG yielded a switch fluorescence ratio of 1.

Sequence AAGGCTTGTG has a switch fluorescence ratio of 1.01.

TTTCTAAGCG was tested, and the switch fluorescence ratio was 1.01.

ATCATTGATG was tested, and the switch fluorescence ratio was 1.03.

CCTTATGAAG was tested, and the switch fluorescence ratio was 1.04.

Sequence ACACTATGAG has a switch fluorescence ratio of 0.998.

CCGTCGAAGG gave a switch fluorescence ratio of 1.09.

CCGACCATCG showed a switch fluorescence ratio of 1.3.

Work on TGTTAGCACA yielded a switch fluorescence ratio of 1.02.

With ATATGTCCG the switch fluorescence ratio was 0.945.

AGTTGGCCTA gave a switch fluorescence ratio of 0.95.

Work on GATATAAAAG yielded a switch fluorescence ratio of 1.04.

For TACGCCTCGC, the switch fluorescence ratio was 1.1.

In the case of TGGCTATGTC, the switch fluorescence ratio is reported as 1.01.

CATTCTAAGA gave a switch fluorescence ratio of 1.

Work on AGGAGCACTA yielded a switch fluorescence ratio of 1.09.

GAATTGTAGG gave a switch fluorescence ratio of 0.992.

Sequence ATGGAGCACT has a switch fluorescence ratio of 1.33.

ACCACGAACC gave a switch fluorescence ratio of 1.52.

Work on TCAGATAACG yielded a switch fluorescence ratio of 1.01.

GGGGGCCCCT gave a switch fluorescence ratio of 1.04.

Sequence TGCCGTTAGT has a switch fluorescence ratio of 1.06.

GCTAAATACT was tested, and the switch fluorescence ratio was 1.17.

In the case of GCTGCTCTCG, the switch fluorescence ratio is reported as 1.01.

ATTATGTATA showed a switch fluorescence ratio of 1.07.

CGTCTGACAA was tested, and the switch fluorescence ratio was 1.77.

For CCAGCTGGGC, the switch fluorescence ratio was 1.06.

AACTGGCACA was tested, and the switch fluorescence ratio was 1.05.

GCAACACTGA was tested, and the switch fluorescence ratio was 1.1.

With GGCCCTGGCG the switch fluorescence ratio was 1.02.

CATGGAGTTG was tested, and the switch fluorescence ratio was 0.988.

For AGCAGAAACG, the switch fluorescence ratio was 0.985.

Work on CTCCGTTGCG yielded a switch fluorescence ratio of 1.4.

ATATGGTTCT showed a switch fluorescence ratio of 0.959.

In the case of TACTCGCCC, the switch fluorescence ratio is reported as 1.59.

Work on TAATACATAG yielded a switch fluorescence ratio of 1.02.

With CGCGGTGCGT the switch fluorescence ratio was 0.92.

TTGATCGCTG showed a switch fluorescence ratio of 0.981.

Work on GTTAGAGTGC yielded a switch fluorescence ratio of 0.986.

For GGCAACTTGG, the switch fluorescence ratio was 1.

For AATGGAAGAG, the switch fluorescence ratio was 0.995.

In the case of ACTGGTAAAG, the switch fluorescence ratio is reported as 0.984.

CTGCTATAAG was tested, and the switch fluorescence ratio was 1.07.

CCAGAGTGGC gave a switch fluorescence ratio of 1.34.

Work on ATCTCGACAC yielded a switch fluorescence ratio of 0.969.

GCCCTTGCTG showed a switch fluorescence ratio of 0.944.

Work on CTGCGAGACT yielded a switch fluorescence ratio of 2.87.

GCACTCCACA showed a switch fluorescence ratio of 1.39.

With CCGCTGATCA the switch fluorescence ratio was 1.45.

With AGGTTCTGTG the switch fluorescence ratio was 0.981.

With AGAATTTCCT the switch fluorescence ratio was 0.954.

TCTACCGGAA was tested, and the switch fluorescence ratio was 1.8.

In the case of ACACACAAGA, the switch fluorescence ratio is reported as 1.28.

With TAAGTCCCCT the switch fluorescence ratio was 1.51.

With TCGGGACCT the switch fluorescence ratio was 1.03.

Work on AGGCAATTAA yielded a switch fluorescence ratio of 1.12.

With AGTCTTCTA the switch fluorescence ratio was 0.971.

With CTGGACCTGT the switch fluorescence ratio was 1.

CCCCTTCCAG was tested, and the switch fluorescence ratio was 1.2.

TGTGTTGGC was tested, and the switch fluorescence ratio was 1.

GTGTGTGAGT gave a switch fluorescence ratio of 1.01.

For TTCGTCT, the switch fluorescence ratio was 1.

With GAAGAGGGCG the switch fluorescence ratio was 1.04.

GGGAAGTGTA gave a switch fluorescence ratio of 1.02.

GCGGGGACTA showed a switch fluorescence ratio of 0.988.

For CTATTTCGA, the switch fluorescence ratio was 1.01.

TATCGTACGA was tested, and the switch fluorescence ratio was 1.06.

Work on GATCTCTAGG yielded a switch fluorescence ratio of 1.01.

In the case of CGGTGTATG, the switch fluorescence ratio is reported as 0.939.

Work on TTGATAATTG yielded a switch fluorescence ratio of 0.997.

In the case of TCGGGCTAGG, the switch fluorescence ratio is reported as 0.966.

With GACCATCGTA the switch fluorescence ratio was 1.02.

TTGACTCGTA gave a switch fluorescence ratio of 0.992.

For GAACCTTTCC, the switch fluorescence ratio was 3.44.

With GCGTTTCTGT the switch fluorescence ratio was 0.983.

GGGTCCTGCC was tested, and the switch fluorescence ratio was 1.01.

In the case of AATCCTAACA, the switch fluorescence ratio is reported as 1.05.

Work on TTGATTTCTG yielded a switch fluorescence ratio of 1.04.

AATTAGAATA was tested, and the switch fluorescence ratio was 1.03.

Sequence TTACGAACTA has a switch fluorescence ratio of 1.31.

Work on ATGGCTAAGT yielded a switch fluorescence ratio of 1.04.

Sequence TACTGTCACG has a switch fluorescence ratio of 1.28.

Sequence ATAGAGCTGG has a switch fluorescence ratio of 1.03.

With CTGTCAGAAC the switch fluorescence ratio was 0.978.

TACCGTGTG was tested, and the switch fluorescence ratio was 1.02.

In the case of AAGATCTAAT, the switch fluorescence ratio is reported as 0.994.

Work on GTGCATGTTC yielded a switch fluorescence ratio of 1.04.

TTTTTATGA showed a switch fluorescence ratio of 0.975.

In the case of CCAATCGCAG, the switch fluorescence ratio is reported as 3.43.

In the case of CGCGTCGGAT, the switch fluorescence ratio is reported as 1.03.

Work on GGGATGATAA yielded a switch fluorescence ratio of 1.01.

ATGGCGTTAC gave a switch fluorescence ratio of 1.01.

In the case of GGTTTGTCGA, the switch fluorescence ratio is reported as 0.989.

In the case of GGGCGTTACC, the switch fluorescence ratio is reported as 1.

For GATCTCGTTG, the switch fluorescence ratio was 0.975.

With TGGCATATAC the switch fluorescence ratio was 1.8.

CGGGCCGCAA was tested, and the switch fluorescence ratio was 5.6.

Sequence ATTAAGCCTG has a switch fluorescence ratio of 0.96.

In the case of ACGCTTTAAG, the switch fluorescence ratio is reported as 1.03.

Work on TTATCCATCG yielded a switch fluorescence ratio of 0.999.

For GTATGCGTAA, the switch fluorescence ratio was 1.01.

In the case of ATTTTCCCCG, the switch fluorescence ratio is reported as 1.14.

Work on ATCCTGTTCA yielded a switch fluorescence ratio of 0.997.

With CGTGTATCTG the switch fluorescence ratio was 1.03.

GGTGTGTGCC gave a switch fluorescence ratio of 0.998.

Sequence TGGACTCGGG has a switch fluorescence ratio of 0.968.

For AAGTGAACGT, the switch fluorescence ratio was 1.

With GACTGAAGCC the switch fluorescence ratio was 1.07.

Work on ACCGTGACGA yielded a switch fluorescence ratio of 1.08.

TGGTACATGA showed a switch fluorescence ratio of 0.992.

Sequence GAAAGGTAT has a switch fluorescence ratio of 1.
